Data on 50 compounds can be found in article PMC6919601, “Identification of Plasmodium dipeptidyl aminopeptidase allosteric inhibitors by high throughput screening” (PLoS ONE, 2019).

About 230 (0.21%) of roughly 110,000 compounds showed an effect of 50% or more. This is one part of the list.
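Further: 30 min substrate incubation versus DMSO and 10 µM JCP410 controls.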

For the experiment, the target named is DPAP1 (Plasmodium falciparum, UniProt Q8IIJ9). As to the kind of experiment: primary screen, percent inhibition; read by cleavage of a fluorogenic dipeptide substrate; higher = more effect of the substance. Also noted: species or system P. falciparum D10 trophozoite lysates; single well.
DPAP1, sequence (Q8IIJ9 whole entry, looked up): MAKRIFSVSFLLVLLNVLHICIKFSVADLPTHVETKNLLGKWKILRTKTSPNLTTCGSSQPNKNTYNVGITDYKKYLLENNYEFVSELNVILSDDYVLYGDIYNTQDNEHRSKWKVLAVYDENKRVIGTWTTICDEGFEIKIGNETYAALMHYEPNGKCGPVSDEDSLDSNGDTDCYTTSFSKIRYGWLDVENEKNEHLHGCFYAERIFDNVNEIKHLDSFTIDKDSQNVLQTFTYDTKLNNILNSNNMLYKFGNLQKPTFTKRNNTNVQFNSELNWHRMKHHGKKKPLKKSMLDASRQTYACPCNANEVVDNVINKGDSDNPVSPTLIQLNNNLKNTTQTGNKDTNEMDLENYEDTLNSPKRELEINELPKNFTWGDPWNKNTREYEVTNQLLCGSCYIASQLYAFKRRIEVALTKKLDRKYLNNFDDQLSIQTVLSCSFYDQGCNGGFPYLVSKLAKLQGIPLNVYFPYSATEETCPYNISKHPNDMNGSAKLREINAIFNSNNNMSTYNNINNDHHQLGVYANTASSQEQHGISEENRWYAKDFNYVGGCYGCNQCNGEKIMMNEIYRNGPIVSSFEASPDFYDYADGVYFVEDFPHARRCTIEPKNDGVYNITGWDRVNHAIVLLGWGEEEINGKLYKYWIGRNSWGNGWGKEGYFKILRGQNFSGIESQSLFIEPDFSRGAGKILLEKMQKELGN
Turning to `CCOC(=O)c1c(NC(=O)c2nn(C)c(=O)c3ccccc23)sc2c1CCCC2`, the “% Inhibition @ 10 uM” value is on record as -4.42%.

For `CCOc1c(Cl)cc(C(=O)NC(C)(C)C)cc1Cl`, the “% Inhibition @ 10 uM” value is on record as -0.123%.

As for `CSc1nc(O)c(C(c2ccccc2)c2ccccc2)c(O)n1`, the “% Inhibition @ 10 uM” value is -2.34%.

Regarding `CC(Nc1cnn(C23CC4CC(CC(C4)C2)C3)c(=O)c1Cl)c1ccccc1` (centres unmarked), the “% Inhibition @ 10 uM” value is on record as 0.166%.

On to `COc1ccc(-c2nnc(-c3ccccc3)o2)cc1`, for which the “% Inhibition @ 10 uM” value came to 1.26%.

For `COc1ccccc1-n1nc(C)c(-c2ccccc2)c1N`, the “% Inhibition @ 10 uM” value is given as -2.19%.

As for `Cc1cc(C)nc(N2CCN(c3ncnc4sc5c(c34)CCCC5)CC2)n1`, the “% Inhibition @ 10 uM” value is -10.5%.

Turning to `COc1cccc(CN2CCCC(O)C2)c1` (centres unmarked), the “% Inhibition @ 10 uM” value amounted to 8.45%.

Regarding `CCCCCc1ccc(-c2ccc(-c3noc(-c4ccc(CCCC)cc4)n3)cc2)cc1`, the “% Inhibition @ 10 uM” value was -0.693%.

On to `CNCc1cccc(OC)c1OCc1ccc(F)cc1`, for which the “% Inhibition @ 10 uM” value was -3.48%.

In the case of `C(=C\c1ccccc1)/CN1CCN(Cc2cccnc2)CC1`, the “% Inhibition @ 10 uM” value is recorded as -2.56%.

As for `Cc1cc(=O)n2nc(N3CCC(C(=O)NCCCSC4CCCCC4)CC3)sc2n1`, the “% Inhibition @ 10 uM” value worked out at 1.38%.

As to `Cc1ccccc1CNCc1c(C(=O)O)n(Cc2ccccc2C)c2ccccc12`, the “% Inhibition @ 10 uM” value is 0.201%.

In the case of `CC1CCc2c(sc(NC(=O)CCC(=O)O)c2C(=O)Nc2cccc3ccccc23)C1` (centres unmarked), the “% Inhibition @ 10 uM” value worked out at 5.53%.

For the compound `CC(CNC(=O)Cn1ncn2c(cc3cc(F)ccc32)c1=O)c1ccccc1` (centres unmarked), the “% Inhibition @ 10 uM” value is given as -3.47%.

As for `CC(=O)c1c(O)c2cccc3c2n(c1=O)C(C)C3` (centres unmarked), the “% Inhibition @ 10 uM” value is given as 2.5%.

`CCOC(=O)c1cnc2c(C#N)cnn2c1-c1ccccc1`: the “% Inhibition @ 10 uM” value came out at 4.74%.

For the compound `CN1CCN(Cc2ccsc2)CC1`, the “% Inhibition @ 10 uM” value was -7.5%.

Regarding `CCOC(=O)c1cnc2cc(-c3ccccc3)nn2c1C`, the “% Inhibition @ 10 uM” value is -3.63%.

In the case of `COCCN1C(=O)C(O)=C(C(=O)c2ccc(C)cc2)C1c1cccc(Oc2ccccc2)c1` (centres unmarked), the “% Inhibition @ 10 uM” value is recorded as 0.163%.

Take `O=S(=O)(NC1CCCCC1)c1ccc(-n2cnnn2)cc1`: the “% Inhibition @ 10 uM” value was -2.84%.

With `O=C1C2C3C=CC(C3)C2C(=O)N1CCC(=O)N(C1CCCCC1)C1CCCCC1` (centres unmarked), the “% Inhibition @ 10 uM” value worked out at 4.01%.

For the compound `CSCCOC(=O)C1=C(C)NC(=O)CC1c1ccccc1C(F)(F)F` (centres unmarked), the “% Inhibition @ 10 uM” value is recorded as -0.396%.

With `O=C(c1nc(-c2ccccc2)n(-c2ccc(Cl)cc2)n1)N1CCOCC1`, the “% Inhibition @ 10 uM” value worked out at 1.89%.

As to `O=C(O)c1ccccc1C(=O)Nc1ccc(S(=O)(=O)NC2CCCCC2)cc1`, the “% Inhibition @ 10 uM” value was found to be 1.29%.

For the compound `FC(F)(F)c1ccc(NCc2ccccc2)nc1`, the “% Inhibition @ 10 uM” value is given as -5.48%.

For the compound `CCc1ccc(-c2cn3ccccc3n2)cc1`, the “% Inhibition @ 10 uM” value came to 1.27%.

For the compound `Cc1cc2n(c(=O)c1C#N)CC(c1ccccc1)=C2`, the “% Inhibition @ 10 uM” value worked out at 2.38%.

As to `Cc1cc(C)n(-c2ccc(Cl)cc2)c(=O)c1C(=O)O`, the “% Inhibition @ 10 uM” value was 1.27%.

Consider `Cc1ccc(CNC(=O)c2ccc(CS(=O)c3ccccc3Cl)o2)cc1` (centres unmarked), for which the “% Inhibition @ 10 uM” value is 4.65%.

Take `CN1CCC(N(C)C(=O)/C(=C/c2cccs2)NC(=O)c2ccccc2)CC1`: the “% Inhibition @ 10 uM” value stood at 0.751%.

Take `COc1ccc(-c2cc(C(=O)Nc3cccc4ccccc34)c3ccccc3n2)cc1`: the “% Inhibition @ 10 uM” value worked out at 3.05%.

In the case of `O=C(NC1CCN(Cc2ccccc2)CC1)C1CCN(S(=O)(=O)c2cccs2)CC1`, the “% Inhibition @ 10 uM” value is reported as -2.65%.

Turning to `O=C(NCc1ccccc1)c1ccc(COCC(F)(F)F)o1`, the “% Inhibition @ 10 uM” value was -3.36%.

Regarding `CCOC(=O)C1=CN(C(C)C)C=C(C(=O)OCC)C1c1ccc(OCc2ccccc2)cc1`, the “% Inhibition @ 10 uM” value stood at 3.45%.

As for `CC(C)NC(=O)c1ccc2snnc2c1`, the “% Inhibition @ 10 uM” value is given as -1.74%.

Take `COC(=O)C1CCCN1Cc1ccc(OC)c(C)c1C` (centres unmarked): the “% Inhibition @ 10 uM” value is on record as 1.57%.

Consider `Cc1cccn2cc(CCNC(=O)c3cccc(Cl)c3)nc12`, for which the “% Inhibition @ 10 uM” value is reported as -3.51%.

Regarding `O=C(CSc1c2c(nc3ccc(Cl)cc13)CCCC2)N1CCC2(CC1)OCCO2`, the “% Inhibition @ 10 uM” value is listed as -6.89%.

Regarding `C#CC(C)(CC)NC(=O)c1cc2nc(C3CC3)cc(C(F)(F)F)n2n1` (centres unmarked), the “% Inhibition @ 10 uM” value was 2.57%.

Consider `Cc1ccc(C(=O)Nc2ccc(Cl)cc2)c(C)n1`, for which the “% Inhibition @ 10 uM” value is listed as 0.826%.

For the compound `CCOC(=O)C1=C(C)NC(=O)C1(NC(=O)c1cccnc1)C(F)(F)F` (centres unmarked), the “% Inhibition @ 10 uM” value is -1.75%.

Turning to `CC(=O)Nc1c(C(=O)N2CCCCC2)cnn1-c1ccccc1Cl`, the “% Inhibition @ 10 uM” value is recorded as -0.891%.

`CCn1cc(C(=O)Nc2ccccc2C(C)C)cn1`: the “% Inhibition @ 10 uM” value stood at 6.1%.

Consider `O=C(Nc1ccc2c(c1)S(=O)(=O)c1cc(NC(=O)c3cccs3)ccc1-2)c1cccs1`, for which the “% Inhibition @ 10 uM” value is -3.26%.

For the compound `N#Cc1cc2c(nc1SCC(=O)Nc1ccc(S(=O)(=O)Nc3nccs3)cc1)CCCC2`, the “% Inhibition @ 10 uM” value is listed as -0.968%.

In the case of `CCC(=O)Nc1ncc(-c2ccccc2)s1`, the “% Inhibition @ 10 uM” value was -3.72%.

Regarding `COc1ccccc1CN1CCN(c2ccccn2)CC1`, the “% Inhibition @ 10 uM” value was -0.127%.

Consider `Cc1c(C)n(C)c2ccc(C(=O)NCCc3cccs3)cc12`, for which the “% Inhibition @ 10 uM” value is on record as 1.95%.

Turning to `CCc1ccc2oc(C(=O)NCc3ccc(OC)cc3)cc(=O)c2c1`, the “% Inhibition @ 10 uM” value was -5.08%.
